Read counts are not given, so values of variants with three or more changes are uncertain.
B1: CPEB3 Ribozyme (parent)
chain: UAACAGGGGGCCACAGCAGAAGCGUUCACGUCGCAGCCCCUGUCAGAUUCUGGUGAAUCUGCGAAUUCUGCUGUAUAUCUC

Variants of: B1
Assay: self-cleavage, relative activity (ratio to wild type); higher = more cleavage; in vitro, sequencing
Procedure, shortened: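 Relative activity compares each variant's cleaved/total read fraction with that of the unmutated ribozyme. To get these fractions, barcoded CPEB3 ribozyme libraries from rounds of error-prone PCR were transcribed with T7 RNA polymerase for 5 hours at 37°C and then given 15 min of DNase I treatment before EDTA was added. The RNAs were reverse transcribed with template switching and sequenced on Illumina, and DNA sequencing linked barcodes to variants. A minimum of 5 reads applied, and three batches were averaged.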

| Variant | self-cleavage |
| --- | --- |
| U25A G30A A64G U78A | 0.12 |
| G24A A45U G70C | 0.15 |
| G24A U69C U78C | 0.13 |
| G24C U43C A57G | 0.08 |
| U25C U26C U76A | 0.22 |
| U25C A28U G63C | 0.09 |
| U25A U31G U54A U72C | 0.23 |
| U25C U26A U31C A57G G63A U76C | 0.17 |
| G24A A56U U76A | 0.08 |
| U25C C37U A45U A47G | 0.12 |
| U25C G33U U49G G52C U78C | 0.17 |
| G24A C29U U41A | 0.16 |
| U25C U26C G33A | 0.23 |
| C23G U41A A56G | 0.18 |
| G24A A35G A65U A75G U76C | 0.08 |
| U25A U48C U78C | 0.47 |
| U25A A28G A35G U48C C81U | 0.1 |
| C23U U41A C44A U60A | 0.17 |
| C23U A35U G55A A56G C68U G70A U80C | 0.14 |
| U25A C39U U58A A75U | 0.07 |
| G24A U43A U49C | 0.16 |
| U25C C32U C38A | 0.39 |
| C23U U48C A64G | 0.08 |
| C23G U41C A45U U48C A77G | 0.34 |

| Variant | self-cleavage |
| --- | --- |
| G24A C32A G73U | 0.35 |
| G24A U26A U48C U69C | 0.08 |
| U25A U51A A57G U67C A75C U76C | 0.05 |
| G24A U26A A35G U41C U69C | 0.06 |
| G24U A45U A65U | 0.2 |
| C23G U54A C81G | 0.28 |
| U25A U31A A45U A77U | 0.11 |
| G24A U31C A47G | 0.17 |
| U25C U26A A35U A56G U74A | 0.42 |
| C23U U58A U66A | 0.07 |
| U25C A47G U69A | 0.17 |
| U25A U48C U54C U78A | 0.14 |
| U25C G46A G63U G70U | 0.18 |
| U25C C32A A64G U66C U67C C79U | 0.06 |
| G24C C37U U54C U67C | 0.09 |
| U25C U31C A35G A57U | 0.13 |
| C23U U58A G70A | 0.12 |
| U25A A35G U41C G42C A57U | 0.02 |
| C23U G42A U60C C79U U80C | 0.21 |
| C23U U60A A65G | 0.12 |
| G24A A28G G46A | 0.08 |
| U25C U31C A47G U72C A75U | 0.17 |
| U25A U58C U69C | 0.06 |
| U25C C50G C71U | 0.07 |

| Variant | self-cleavage |
| --- | --- |
| G24A A57G U58C U69G A77C | 0.04 |
| U25C G30A C38U U72C A77U | 0.35 |
| G24A U48C A64G | 0.08 |
| U25C U31C A45C | 0.08 |
| U25A A57G U78A | 0.14 |
| U25C A35U U51C C59A U69C A77G | 0.04 |
| G24C U26C U41A U66C | 0.1 |
| U25C A47C U74C U78C | 0.15 |
| U25A A28G U58A | 0.11 |
| U25C U26C U60A U76A C79A | 0.04 |
| G24A C38G U48C U58A | 0.15 |
| U25A U31C U48C U49C A65G | 0.12 |
| G24C U26A U66A U72C | 0.14 |
| U25A U41C A65G U72C | 0.16 |
| G24A A56G U66C | 0.05 |
| U25A U26C G30A G53A U74C | 0.12 |
| G24A U26C U69A U72C | 0.08 |
| C23U A28G C34U C37U U76C | 0.07 |
| U25A U26C A35U A45U | 0.07 |
| C23U A64U A65U | 0.13 |
| U25C A35U U66C | 0.11 |
| U25A U41C U67C | 0.09 |
| U25C A35U U41A U78C | 0.16 |
| G24C A35U G36C U66C | 0.08 |

| Variant | self-cleavage |
| --- | --- |
| U25A U41C U58C | 0.09 |
| U25A G63C U80C | 0.37 |
| G24A A47G A75U | 0.08 |
| G24A A64G U67C | 0.2 |
| U25C A28G A47U A64U | 0.07 |
| U25C A57G U67C | 0.38 |
| U25C A47G U51A U60C | 0.12 |
| U25C C40U C62U U67C C68U U80C | 0.06 |
| U25A U60C A77U | 0.14 |
| G24A U31G C38U U48C U69A | 0.12 |
| U25C A28U C32U A35U U41G U54A U58A | 0.06 |
| U25C U26G A57G U72C U78C | 0.06 |
| U25A U41C U43C A64G G73U | 0.39 |
| U25C C38U U49C U60C | 0.07 |
| U25A C59A U69C G73A U76C | 0 |
| U25A C29A U51A A65G | 0.29 |
| U25C A45G U60C U78C | 0.35 |
| G24A A28U U51A | 0.16 |
| U25A A28C U43C U72A U80C | 0.06 |
| U25C G36A U43A A64G | 0.13 |
| U25C A35U U41C A57G U69A | 0.08 |
| G24C U25G G36C U51C | 0.07 |
| U25C C39G U58C C79U | 0.05 |
| U25C A35U U43C U48A A56G A65G A77U | 0.04 |

| Variant | self-cleavage |
| --- | --- |
| U25A G33U U49A | 0.16 |
| C23U U31C A35G A57G U60A U69C | 0.09 |
| C23G U41C G63C | 0.07 |
| G24A C38G U49C G73C | 0.1 |
| G24U C38U U48C U51A | 0.06 |
| G24A A28U G30U G46A U60C U80C | 0.06 |
| G24A U49C A65G U80C | 0.09 |
| U25A U60C U78C U80A | 0.06 |
| U25C A35U A45G U54A C79A | 0.24 |
| G24A C40U U43C U54C U60C U72C | 0.11 |
| U25C A35G A45G A56U U67C | 0.17 |
| U25A U48C U76C | 0.14 |
| G24A A35G U41A U72C A77G | 0.08 |
| U25A U43C U60C | 0.07 |
| U25A C38A A77G | 0.47 |
| U25C A35U A77U | 0.42 |
| C23U U26A U51A C59G | 0.12 |
| C23U A45G C50U A56G | 0.18 |
| G24U U26A U43C G46U U51C | 0.11 |
| G24A C27A C39A U51A U54C A56G | 0.12 |
| U25C C40U G63U U69C U78A | 0.07 |
| U25C C38U A56G | 0.11 |
| U25A U41G A45G U60A | 0.1 |
| U25C A35U U69A | 0.15 |

| Variant | self-cleavage |
| --- | --- |
| U25C U26C U31A A35G U48C G70A G73U | 0.04 |
| G24A G30U U41C | 0.11 |
| C23U U49G A65G | 0.17 |
| U25A U26A U69A | 0.1 |
| U25A A64C A77U | 0.22 |
| U25A U26C U41A | 0.3 |
| U25A U54A A64U | 0.19 |
| C23G U41G A56U A64G | 0.09 |
| U25A U69C U76C | 0.06 |
| G24C U26C A35C A47C U60A | 0.09 |
| C23U U43C U48C U60A | 0.13 |
| C23U U25C C34U A45G | 0.16 |
| G24A U48C C59A U67C | 0.15 |
| C23U C32U A35G U66C A77G | 0.13 |
| C23U U31G C44U U51C U54A A65U U74C | 0.02 |
| G24A U31G C40G A57G A64U U74A | 0.09 |
| U25C U26C A35G U48C C62A | 0.2 |
| U25A U67C U69C U80C | 0.14 |
| U25C A45U U78C | 0.16 |
| U25C A64G U76A | 0.13 |
| U25A U26C C32U U51A A64G U72C | 0.05 |
| U25C A45U G52C U60A | 0.22 |
| U25C G33U A45G A47G A64U | 0.13 |
| U25C A56G U58A C68A U76C | 0.11 |

| Variant | self-cleavage |
| --- | --- |
| U25A U26C U31A A77G | 0.23 |
| U25A A45G A64C | 0.19 |
| G24C U31C U41A U74C | 0.13 |
| U25C G33U U76C | 0.08 |
| U25A G42U U69A | 0.08 |
| U25C C40U A47G U69C | 0.13 |
| U25C G36U U48C | 0.11 |
| G24C C29U G33A A65G U69C | 0.05 |
| U25C C59U U80C | 0.37 |
| U25C C34U A47G U67C | 0.1 |
| U25A U31A A57G G73C U80C | 0.27 |
| U25C C38G U54C A56U U69C | 0.08 |
| U25C U26C A28G A64G | 0.14 |
| C23U A56G U74A | 0.52 |
| U25A G70A U80C | 0.16 |
| U25C A56G U66C C71A U76C U80C | 0.12 |
| U25C C27G C37G A45U A64U A77G | 0.06 |
| U25A U26C U51A U58A | 0.08 |
| C23U A47U U60C | 0.07 |
| U25C A28G A45U | 0.08 |
| U25A A28G U72C | 0.51 |
| U25C A35G U41C | 0.21 |
| U25C A47G U80A | 0.1 |

Source: the RNAGym collection of RNA variant scans (doi:10.1093/nar/gkz1192)
